In the supplement of paper PMC13380429:

Columns and labels:
Conditions in all cases: 72 h
[1] = system: Vero E6; test: cell viability relative to DMSO; higher = less toxic
[2] = system: U2OS; test: as above
[3] = system: Calu-3; test: as above
[4] = system: Caco-2; test: as above
[5] = system: HepG2; test: as above
[6] = system: Vero E6; test: relative viability EC50 (midpoint between 100% and the lowest measured viability); higher = less toxic
[7] = system: U2OS; test: as above
[8] = system: Calu-3; test: as above
[9] = system: Caco-2; test: as above
[10] = system: HepG2; test: as above
[11] = system: Vero E6; test: drug sensitivity score (DSS) for viability; higher = more toxic; extreme values may be limits of the assay
[12] = system: U2OS; test: as above
[13] = system: Calu-3; test: as above
[14] = system: Caco-2; test: as above
[15] = system: HepG2; test: as above

CC(C)(C)c1ccc(O)cc1 [4-tert-butylphenol]
cell viability [%]
Conditions | [1] | [2] | [3] | [4] | [5]
1 nM | 98.1 | 102 | 107 | 100 | 91.7
10 nM | 102 | 104 | 90.8 | 96.7 | 101
100 nM | 95.9 | 98.4 | 98.2 | 105 | 90.6
1000 nM | 98.8 | 95.6 | 96.9 | 97.9 | 99
10000 nM | 99.4 | 99.2 | 102 | 89.3 | 99.4

Conditions | drug sensitivity score | relative viability EC50 [µM]
[6] | – | > 10
[7] | – | > 10
[8] | – | > 10
[9] | – | > 10
[10] | – | > 10
[11] | 0 | –
[12] | 0 | –
[13] | 0 | –
[14] | 0 | –
[15] | 0 | –
